The text below walks through data of PubChem BioAssay AID1508624 (National Center for Advancing Translational Sciences (NCATS), 2021).

The whole screen tested about 48,000 compounds, of which about 120 (0.25%) were called active. Inconclusive results (about 4%) are left out. Calls follow the shape of the dose curve; as a rule, active = well fitted activation curve with a large enough effect; inconclusive = small, poorly fitted or top-dose-only effect, or another doubt; inactive = no such curve, though single readings can be large or run the other way. The list shows a part of the results.

This experiment is described as follows: Primary qHTS for Identification of Small Molecule Activators of Huntingtin-Antisense Promoter Activity. Also: nearly all actives have a fitted effect of over 55% in size. The settings on record: HEK293 HTT-AS promoter firefly luciferase reporter, 24 h; series mostly up to 57.5 µM; activity change, positive = activation: at the top concentration. A digest of the protocol:
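HEK293 luciferase promoter-reporter cells (2,500/well) plated 24 h, then compounds added at up to 57.5 uM final for 24 h at 37 °C. Firefly luminescence by Dual-Glo, normalized to vehicle (0%) and zero RLU (-100%).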
On the technique in general: Quantitative high-throughput screening tests each substance at several concentrations.
`Clc1cccc(-c2nc3ccccn3c2Nc2ccc3c(c2)OCCO3)c1`: the “activity change, positive = activation” value is inactive: -19.1%.

For the compound `COc1ccc(N2C(=O)CSC23C(=O)N(CC(=O)Nc2ccccc2F)c2ccccc23)cc1` (stereo unspecified), the “activity change, positive = activation” value was inactive: -16.9%.

Regarding `Cc1[nH]cnc1CN1CCc2c(c3ccccc3n2C)C1=O`, the “activity change, positive = activation” value is inactive: -4.22%.

Regarding `Cc1cccc(C(=O)Nc2cc3nn(-c4ccc(C(C)C)cc4)nc3cc2C)c1`, the “activity change, positive = activation” value was inactive: -0.0457%.

`Cc1ccc(N(C)S(=O)(=O)c2ccc(-c3coc(C)n3)cc2)cc1`: the “activity change, positive = activation” value was inactive: -20.9%.

Turning to `Cc1cccc(-c2noc(-c3ccc(NCc4ccccc4)c([N+](=O)[O-])c3)n2)c1`, the “activity change, positive = activation” value is inactive: 2.91%.

As to `CC1=C(c2ccc(C)c(C)c2)S(=O)(=O)N=C1N1CCC(C(=O)NCc2ccccc2C)CC1`, the “activity change, positive = activation” value is inactive: -20.5%.

In the case of `O=C(O)CCc1ccc(NCc2cccc(Oc3ccccc3)c2)cc1`, the “activity change, positive = activation” value is inactive: -53.3%.

Regarding `Cc1ccc(NC(=O)CN2C(=O)COc3ccc(S(=O)(=O)N4CCOCC4)cc32)cc1N(C)C`, the “activity change, positive = activation” value is inactive: -3.5%.

On to `COc1ccccc1N1CCN(CCCNC(=O)c2nnc(Cc3ccc(F)cc3Cl)o2)CC1`, for which the “activity change, positive = activation” value is inactive: -29.8%.

With `CCc1nc2ccc(C(=O)N3CCN(c4cc(C)ccc4C)CC3)cc2nc1CC`, the “activity change, positive = activation” value was inactive: -19.6%.

On to `CC1=C(C(N)=O)C(c2cccc(Br)c2)n2nc(SCc3ccccc3Cl)nc2N1` (stereo unspecified), for which the “activity change, positive = activation” value was inactive: -6.04%.

As to `Cc1cc(C)c2oc(-c3ccc(NC(=O)COc4ccccc4C)cc3)nc2c1`, the “activity change, positive = activation” value was inactive: 18.5%.

`CCOc1ccc(CCNC(=O)c2cc3sccc3n2CC)cc1OCC`: the “activity change, positive = activation” value is inactive: -45.4%.

For `Fc1ccc(CSc2nncn3c2cc2occc23)c(Cl)c1`, the “activity change, positive = activation” value is inactive: -1.82%.

Turning to `Cc1nn(CC(=O)NCCc2ccccc2)c(=O)c2nn(-c3ccccc3)c(C)c12`, the “activity change, positive = activation” value is inactive: 7.57%.

Take `COc1cc(C2C(C(=O)Nc3ccc(Cl)cc3)=C(C)Nc3nc(SC)nn32)cc(OC)c1OC` (stereo unspecified): the “activity change, positive = activation” value was inactive: -11.1%.

Turning to `CC(C)c1ccccc1Cc1cc(C(=O)Nc2ccc(S(=O)(=O)c3ccccc3C(C)(C)C)cc2)c(O)c(O)c1O`, the “activity change, positive = activation” value was inactive: -36.4%.

Take `Cc1ccc(-n2nc3c(N4CCC(C(=O)NC5CCCCC5)CC4)nnc(C)c3c2C)cc1`: the “activity change, positive = activation” value was inactive: -12.9%.

For the compound `Cc1cc2oc(C(=O)Nc3ccc(S(=O)(=O)N4CCC(C)CC4)cc3)cc(=O)c2cc1C`, the “activity change, positive = activation” value is inactive: 18.5%.

For `CC(C)Cc1ccc(S(=O)(=O)NCc2nc3cccnc3n2Cc2ccccc2)cc1`, the “activity change, positive = activation” value is inactive: -31.7%.

On to `COc1ccc(-n2ncc(C(=O)N3CCN(C(=O)c4ccco4)CC3)c2C2CCN(C(=O)OC(C)(C)C)CC2)cc1`, for which the “activity change, positive = activation” value is inactive: -3.9%.

Regarding `COc1ccc(-c2ccc(CNCCCSc3nnnn3C)o2)cc1Cl`, the “activity change, positive = activation” value is inactive: -13.3%.

Consider `Cc1ccc(/C=C/C(=O)N2CCC(c3nc4ccccc4o3)CC2)cc1`, for which the “activity change, positive = activation” value is inactive: -17%.

As to `CCOC(=O)Cc1c(C)nc2cc(-c3ccc(C(C)(C)C)cc3)nn2c1C`, the “activity change, positive = activation” value was inactive: 26.1%.

For the compound `CCc1ccc(NC(=O)C2CCCN2S(=O)(=O)c2ccc3nc(-c4ccccc4)[nH]c3c2)cc1` (stereo unspecified), the “activity change, positive = activation” value is inactive: -31.9%.

Turning to `Cc1ccc(NC(=O)c2c3c(nc4ccccc24)C(=O)N(C2CCCCC2)C3)cc1F`, the “activity change, positive = activation” value is inactive: 0.752%.

Turning to `Cc1ccccc1NC(=O)CC1NCCNC1=O` (stereo unspecified), the “activity change, positive = activation” value was inactive: -2.93%.

As to `C=CCc1ccccc1OCc1nc2ccc(C)cc2[nH]1`, the “activity change, positive = activation” value is inactive: 2.52%.

On to `COc1ccc(-n2ncc(C(=O)N3CCN(C4CCCCC4)CC3)c2C2CCN(C(=O)OC(C)(C)C)CC2)cc1`, for which the “activity change, positive = activation” value is inactive: -11.6%.

Consider `CCOC(=O)c1c(NC(=O)CSc2nc(-c3ccc(OC)cc3)cc(C(F)(F)F)n2)sc(C)c1C`, for which the “activity change, positive = activation” value is inactive: 5.14%.

On to `Cn1c(=O)n(CC(=O)O)c(=O)c2c1nc1n2CCCN1c1ccc(Cl)cc1`, for which the “activity change, positive = activation” value is inactive: 4.72%.

In the case of `CCN(CC)S(=O)(=O)c1ccc2c(c1)c(=O)c(C(=O)NCCc1ccccc1)cn2C`, the “activity change, positive = activation” value was inactive: 6.22%.

Turning to `COc1ccc(C2CC(=O)c3cnc4c(-c5ccc(F)cc5)c(C)nn4c3C2)cc1OC` (stereo unspecified), the “activity change, positive = activation” value is inactive: -2.09%.

`COc1cc(CN(C(=O)Nc2cccc(Cl)c2)c2ccccn2)cc(OC)c1OC`: the “activity change, positive = activation” value is inactive: -7.51%.

As for `COC(=O)c1nnn(CC(=O)Nc2c(C)cccc2C)c1N`, the “activity change, positive = activation” value is inactive: -14.6%.

For `Cc1cc2nc3c(=O)[nH]c(=O)nc-3n(C[C@H](O)[C@H](O)[C@H](O)CO)c2cc1C`, the “activity change, positive = activation” value was inactive: -0.0913% [at 25.1 µM, percent change from vehicle, -100% = no light].

As to `CC(C)Nc1nc2c(S(=O)(=O)c3cccc(Cl)c3)nnn2c2ccsc12`, the “activity change, positive = activation” value was inactive: -18.6%.

Regarding `Cc1ccc(C(=O)NCC(c2cccs2)S(=O)(=O)c2ccccc2)cc1C` (stereo unspecified), the “activity change, positive = activation” value is inactive: -26.7%.

Take `CC(=O)c1cccc(NC(=O)CCn2nc(C)c(S(=O)(=O)N(C)C)c2C)c1`: the “activity change, positive = activation” value was inactive: -28%.

Turning to `CC(C)CCNC(=O)c1ccc2nc(CCc3ccccc3)oc2c1`, the “activity change, positive = activation” value was inactive: 12.1%.

Consider `CC(C)c1ccc(S(=O)(=O)N2CCN(CC(=O)Nc3ccccc3C(F)(F)F)CC2)cc1`, for which the “activity change, positive = activation” value was inactive: 17.3%.

In the case of `CCOC(=O)c1c(C)oc2nc(C)nc(NCCc3ccc(OC)c(OC)c3)c12`, the “activity change, positive = activation” value is inactive: -11%.

Consider `COC(=O)c1sc(N2C(=O)c3oc4ccc(C)cc4c(=O)c3C2c2ccc(O)c(OC)c2)nc1C` (stereo unspecified), for which the “activity change, positive = activation” value was inactive: -14%.

With `CCCCC(CC)CNC(=O)CCCCn1c(=O)[nH]c2ccsc2c1=O` (stereo unspecified), the “activity change, positive = activation” value was inactive: -14.3%.

On to `COC(=O)c1ccc(C(=O)OC)c(NC(=O)c2c(-c3ccccc3)noc2C)c1`, for which the “activity change, positive = activation” value was inactive: -32.5%.
